# Assay results reported in the supplement of paper PMC8728848.
# The list shows a part of the results.
# B1: CGL (Crenomytilus grayanus), H2FH31 (protein)
# chain: MTTFLIKHKASGKFLHPYGGSSNPANNTKLVLHSDIHERMYFQFDVVDERWGYIKHVASGKIVHPYGGQANPPNETNMVLHQDRHDRALFAMDFFNDNIMHKGGKYIHPKGGSPNPPNNTETVIHGDKHAAMEFIFVSPKNKDKRVLVYA
# Columns and labels:
# Assay in all cases: glycan array binding signal (z-score within array); higher = stronger binding
# Conditions in all cases: glycan notation: IUPAC condensed, linker removed
# [1] = biological target: Gal(b1-4)GalNAc(b1-3)[Fuc(a1-2)]Gal(b1-4)GlcNAc
# Summary of the method: (§1)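 Negative Z-scores can be read as non-binding. The Z-score is calculated within each array and then averaged across arrays of one protein sequence at different concentrations or buffers and across linkers. Arrays, 3228 in all, were curated from the Consortium for Functional Glycomics database and kept only where the protein sequence was available.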
# [2] = biological target: Gal(b1-4)Glc
# Summary of the method: as §1
# [3] = biological target: Gal(b1-4)Glc6S
# Summary of the method: as §1
# [4] = biological target: Gal(b1-4)GlcNAc
# Summary of the method: as §1
# [5] = biological target: Gal(b1-4)GlcNAc(a1-6)Gal(b1-4)GlcNAc
# Summary of the method: as §1
# [6] = biological target: Gal(b1-4)GlcNAc(b1-2)Man
# Summary of the method: as §1
# [7] = biological target: Gal(b1-4)GlcNAc(b1-2)Man(a1-3)Man(b1-4)GlcNAc(b1-4)GlcNAc
# Summary of the method: as §1
# [8] = biological target: Gal(b1-4)GlcNAc(b1-2)Man(a1-3)[Gal(b1-4)GlcNAc(b1-2)Man(a1-6)]Man(b1-4)GlcNAc(b1-4)GlcNAc
# Summary of the method: as §1
# [9] = biological target: Gal(b1-4)GlcNAc(b1-2)Man(a1-3)[Gal(b1-4)GlcNAc(b1-2)Man(a1-6)]Man(b1-4)GlcNAc(b1-4)[Fuc(a1-6)]GlcNAc
# Summary of the method: as §1
# [10] = biological target: Gal(b1-4)GlcNAc(b1-2)Man(a1-3)[Gal(b1-4)GlcNAc(b1-2)Man(a1-6)][Gal(b1-4)GlcNAc(b1-4)]Man(b1-4)GlcNAc(b1-4)[Fuc(a1-6)]GlcNAc
# Summary of the method: as §1
# [11] = biological target: Gal(b1-4)GlcNAc(b1-2)Man(a1-3)[Gal(b1-4)GlcNAc(b1-2)Man(a1-6)][GlcNAc(b1-4)]Man(b1-4)GlcNAc(b1-4)[Fuc(a1-6)]GlcNAc
# Summary of the method: as §1
# [12] = biological target: Gal(b1-4)GlcNAc(b1-2)Man(a1-3)[GlcNAc(b1-2)Man(a1-6)]Man(b1-4)GlcNAc(b1-4)GlcNAc
# Summary of the method: as §1
# [13] = biological target: Gal(b1-4)GlcNAc(b1-2)Man(a1-3)[GlcNAc(b1-4)][Gal(b1-4)GlcNAc(b1-2)Man(a1-6)]Man(b1-4)GlcNAc(b1-4)GlcNAc
# Summary of the method: as §1
# [14] = biological target: Gal(b1-4)GlcNAc(b1-2)Man(a1-3)[Man(a1-6)]Man(b1-4)GlcNAc(b1-4)GlcNAc
# Summary of the method: as §1
# [15] = biological target: Gal(b1-4)GlcNAc(b1-2)Man(a1-6)Man(b1-4)GlcNAc(b1-4)GlcNAc
# Summary of the method: as §1
# [16] = biological target: Gal(b1-4)GlcNAc(b1-2)Man(a1-6)[GlcNAc(b1-2)Man(a1-3)]Man(b1-4)GlcNAc(b1-4)GlcNAc
# Summary of the method: as §1
# [17] = biological target: Gal(b1-4)GlcNAc(b1-2)Man(a1-6)[Man(a1-3)]Man(b1-4)GlcNAc(b1-4)GlcNAc
# Summary of the method: as §1
# [18] = biological target: Gal(b1-4)GlcNAc(b1-2)[Gal(b1-4)GlcNAc(b1-4)]Man(a1-3)[Gal(b1-4)GlcNAc(b1-2)Man(a1-6)]Man(b1-4)GlcNAc(b1-4)GlcNAc
# Summary of the method: as §1
# [19] = biological target: Gal(b1-4)GlcNAc(b1-2)[Gal(b1-4)GlcNAc(b1-4)]Man(a1-3)[Gal(b1-4)GlcNAc(b1-2)[Gal(b1-4)GlcNAc(b1-6)]Man(a1-6)]Man(b1-4)GlcNAc(b1-4)GlcNAc
# Summary of the method: as §1
# [20] = biological target: Gal(b1-4)GlcNAc(b1-2)[Gal(b1-4)GlcNAc(b1-4)]Man(a1-3)[GlcNAc(b1-4)][Gal(b1-4)GlcNAc(b1-2)Man(a1-6)]Man(b1-4)GlcNAc(b1-4)GlcNAc
# Summary of the method: as §1
# [21] = biological target: Gal(b1-4)GlcNAc(b1-2)[Gal(b1-4)GlcNAc(b1-4)]Man(a1-3)[GlcNAc(b1-4)][Gal(b1-4)GlcNAc(b1-2)[Gal(b1-4)GlcNAc(b1-6)]Man(a1-6)]Man(b1-4)GlcNAc(b1-4)GlcNAc
# Summary of the method: as §1
# [22] = biological target: Gal(b1-4)GlcNAc(b1-2)[Gal(b1-4)GlcNAc(b1-6)]Man(a1-6)[Gal(b1-4)GlcNAc(b1-2)Man(a1-3)]Man(b1-4)GlcNAc(b1-4)GlcNAc
# Summary of the method: as §1
binder,measurement,setting,value
B1,glycan array binding signal (z-score),[1],1.29
same,glycan array binding signal (z-score),[2],-0.333
same,glycan array binding signal (z-score),[3],-0.31
same,glycan array binding signal (z-score),[4],0.054
same,glycan array binding signal (z-score),[5],-0.368
same,glycan array binding signal (z-score),[6],-0.334
same,glycan array binding signal (z-score),[7],-0.054
same,glycan array binding signal (z-score),[8],1.11
same,glycan array binding signal (z-score),[9],0.012
same,glycan array binding signal (z-score),[10],1.2
same,glycan array binding signal (z-score),[11],0.362
same,glycan array binding signal (z-score),[12],-0.122
same,glycan array binding signal (z-score),[13],-0.305
same,glycan array binding signal (z-score),[14],-0.101
same,glycan array binding signal (z-score),[15],-0.23
same,glycan array binding signal (z-score),[16],-0.305
same,glycan array binding signal (z-score),[17],-0.38
same,glycan array binding signal (z-score),[18],1.43
same,glycan array binding signal (z-score),[19],1.1
same,glycan array binding signal (z-score),[20],0.217
same,glycan array binding signal (z-score),[21],0.775
same,glycan array binding signal (z-score),[22],1.13
